# Some of the results follow.
# Tests used:
# Experiment in all cases: glycan array binding signal (z-score within array); higher = stronger binding
# Conditions in all cases: glycan notation: IUPAC condensed, linker removed
# [1] = biological target: Neu5Ac(a2-3)[GalNAc(b1-4)]Gal(b1-4)GlcNAc(b1-3)GalNAc
# Outline: (§1)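 The Consortium for Functional Glycomics database supplied 3228 glycan arrays, of which those lacking an available protein sequence were dropped. The binding signal, a within-array Z-score, was averaged across arrays of the same protein sequence and across linkers. Negative scores can be read as non-binding.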
# [2] = biological target: Neu5Ac(a2-3)[Neu5Ac(a2-6)]GalNAc
# Outline: as §1
# [3] = biological target: Neu5Ac(a2-6)Gal
# Outline: as §1
# [4] = biological target: Neu5Ac(a2-6)Gal(b1-3)GlcNAc(b1-3)[Gal(b1-4)GlcNAc(b1-6)]Gal(b1-4)Glc
# Outline: as §1
# [5] = biological target: Neu5Ac(a2-6)Gal(b1-4)Glc
# Outline: as §1
# [6] = biological target: Neu5Ac(a2-6)Gal(b1-4)GlcNAc
# Outline: as §1
# [7] = biological target: Neu5Ac(a2-6)Gal(b1-4)GlcNAc(b1-2)Man(a1-3)Man(b1-4)GlcNAc(b1-4)GlcNAc
# Outline: as §1
# [8] = biological target: Neu5Ac(a2-6)Gal(b1-4)GlcNAc(b1-2)Man(a1-3)[Gal(b1-4)GlcNAc(b1-2)Man(a1-6)]Man(b1-4)GlcNAc(b1-4)GlcNAc
# Outline: as §1
# [9] = biological target: Neu5Ac(a2-6)Gal(b1-4)GlcNAc(b1-2)Man(a1-3)[GlcNAc(b1-2)Man(a1-6)]Man(b1-4)GlcNAc(b1-4)GlcNAc
# Outline: as §1
# [10] = biological target: Neu5Ac(a2-6)Gal(b1-4)GlcNAc(b1-2)Man(a1-3)[GlcNAc(b1-2)Man(b1-4)GlcNAc(b1-2)Man(a1-6)]Man(b1-4)GlcNAc(b1-4)GlcNAc
# Outline: as §1
# [11] = biological target: Neu5Ac(a2-6)Gal(b1-4)GlcNAc(b1-2)Man(a1-3)[Man(a1-6)]Man(b1-4)GlcNAc(b1-4)GlcNAc
# Outline: as §1
# [12] = biological target: Neu5Ac(a2-6)Gal(b1-4)GlcNAc(b1-2)Man(a1-3)[Neu5Ac(a2-6)Gal(b1-4)GlcNAc(b1-2)Man(a1-6)]Man(b1-4)GlcNAc(b1-4)GlcNAc
# Outline: as §1
# [13] = biological target: Neu5Ac(a2-6)Gal(b1-4)GlcNAc(b1-2)Man(a1-6)Man(b1-4)GlcNAc(b1-4)GlcNAc
# Outline: as §1
# [14] = biological target: Neu5Ac(a2-6)Gal(b1-4)GlcNAc(b1-2)Man(a1-6)[Gal(b1-4)GlcNAc(b1-2)Man(a1-3)]Man(b1-4)GlcNAc(b1-4)GlcNAc
# Outline: as §1
# [15] = biological target: Neu5Ac(a2-6)Gal(b1-4)GlcNAc(b1-2)Man(a1-6)[GlcNAc(b1-2)Man(a1-3)]Man(b1-4)GlcNAc(b1-4)GlcNAc
# Outline: as §1
# [16] = biological target: Neu5Ac(a2-6)Gal(b1-4)GlcNAc(b1-2)Man(a1-6)[Man(a1-3)]Man(b1-4)GlcNAc(b1-4)GlcNAc
# Outline: as §1
# [17] = biological target: Neu5Ac(a2-6)Gal(b1-4)GlcNAc(b1-3)Gal(b1-3)GlcNAc
# Outline: as §1
# [18] = biological target: Neu5Ac(a2-6)Gal(b1-4)GlcNAc(b1-3)Gal(b1-4)GlcNAc
# Outline: as §1
# [19] = biological target: Neu5Ac(a2-6)Gal(b1-4)GlcNAc(b1-3)Gal(b1-4)GlcNAc(b1-3)Gal(b1-4)GlcNAc
# Outline: as §1
# [20] = biological target: Neu5Ac(a2-6)Gal(b1-4)GlcNAc(b1-3)Gal(b1-4)[Fuc(a1-3)]GlcNAc(b1-3)Gal(b1-4)[Fuc(a1-3)]GlcNAc
# Outline: as §1
# [21] = biological target: Neu5Ac(a2-6)Gal(b1-4)GlcNAc(b1-3)GalNAc
# Outline: as §1
# [22] = biological target: Neu5Ac(a2-6)Gal(b1-4)GlcNAc6S
# Outline: as §1
# [23] = biological target: Neu5Ac(a2-6)GalNAc
# Outline: as §1
# [24] = biological target: Neu5Ac(a2-6)GalNAc(b1-4)GlcNAc
# Outline: as §1
# [25] = biological target: Neu5Ac(a2-6)GlcNAc(b1-4)GlcNAc
# Outline: as §1
# [26] = biological target: Neu5Ac(a2-6)GlcNAc(b1-4)GlcNAc(b1-4)GlcNAc
# Outline: as §1
# [27] = biological target: Neu5Ac(a2-8)Neu5Ac
# Outline: as §1
# [28] = biological target: Neu5Ac(a2-8)Neu5Ac(a2-3)Gal(b1-3)GalNAc(b1-4)[Neu5Ac(a2-8)Neu5Ac(a2-3)]Gal(b1-4)Glc
# Outline: as §1
# [29] = biological target: Neu5Ac(a2-8)Neu5Ac(a2-3)Gal(b1-4)Glc
# Outline: as §1
# [30] = biological target: Neu5Ac(a2-8)Neu5Ac(a2-3)[Gal(b1-3)GalNAc(b1-4)]Gal(b1-4)Glc
# Outline: as §1
# [31] = biological target: Neu5Ac(a2-8)Neu5Ac(a2-3)[GalNAc(b1-4)]Gal(b1-4)Glc
# Outline: as §1
# [32] = biological target: Neu5Ac(a2-8)Neu5Ac(a2-8)Neu5Ac
# Outline: as §1
# [33] = biological target: Neu5Ac(a2-8)Neu5Ac(a2-8)Neu5Ac(a2-3)Gal(b1-4)Glc
# Outline: as §1
# [34] = biological target: Neu5Ac(a2-8)Neu5Ac(a2-8)Neu5Ac(a2-3)[GalNAc(b1-4)]Gal(b1-4)Glc
# Outline: as §1
# [35] = biological target: Neu5Ac(a2-8)Neu5Ac(a2-8)Neu5Ac(a2-8)Neu5Ac(a2-3)[GalNAc(b1-4)]Gal(b1-4)Glc
# Outline: as §1
# [36] = biological target: Neu5Ac(b2-6)Gal(b1-4)GlcNAc
# Outline: as §1
# [37] = biological target: Neu5Ac(b2-6)GalNAc
# Outline: as §1
# [38] = biological target: Neu5Ac9Ac(a2-3)Gal(b1-3)GlcNAc
# Outline: as §1
binder,measurement,setting,value
Gal 9 (Canis lupus) (protein) MAFSSSQPPYLSPGVPFSGKIQGGLQDGLKITINGTILYCNGTRFAVNFHSGHSDSDIAFHFNPRFEEGGYVVCNTKQKGSWGSEERKMQMPFQMGNPFELCFMVNSCDFKVTVNGSHFTQYSHRVPFHYVDTLSITGAVQLSYISFQSPGVWQSSSAPITQTVIHTVQTTPGQPFPNPIIPPTAYPTPTYPMPFFTSIPGGLYPSKSIIVSGTVLPGAKRFHINLRSGNDIAFHLNPRFNENTVVRNMQINNSWGSEERSLPRKMPFVQGQSFSVWIMCEGHCFKVAVDGEHLFEYYHRLKNLLAINNMEVAGDVQLTHVQT,glycan array binding signal (z-score),[1],-0.303
same,glycan array binding signal (z-score),[2],-0.343
same,glycan array binding signal (z-score),[3],-0.342
same,glycan array binding signal (z-score),[4],-0.324
same,glycan array binding signal (z-score),[5],-0.042
same,glycan array binding signal (z-score),[6],-0.334
same,glycan array binding signal (z-score),[7],-0.332
same,glycan array binding signal (z-score),[8],-0.085
same,glycan array binding signal (z-score),[9],-0.307
same,glycan array binding signal (z-score),[10],0.465
same,glycan array binding signal (z-score),[11],-0.321
same,glycan array binding signal (z-score),[12],-0.325
same,glycan array binding signal (z-score),[13],-0.298
same,glycan array binding signal (z-score),[14],0.135
same,glycan array binding signal (z-score),[15],-0.321
same,glycan array binding signal (z-score),[16],-0.335
same,glycan array binding signal (z-score),[17],0.406
same,glycan array binding signal (z-score),[18],0.21
same,glycan array binding signal (z-score),[19],0.074
same,glycan array binding signal (z-score),[20],-0.327
same,glycan array binding signal (z-score),[21],-0.178
same,glycan array binding signal (z-score),[22],-0.334
same,glycan array binding signal (z-score),[23],-0.329
same,glycan array binding signal (z-score),[24],-0.345
same,glycan array binding signal (z-score),[25],-0.346
same,glycan array binding signal (z-score),[26],-0.335
same,glycan array binding signal (z-score),[27],-0.316
same,glycan array binding signal (z-score),[28],-0.045
same,glycan array binding signal (z-score),[29],0.37
same,glycan array binding signal (z-score),[30],-0.302
same,glycan array binding signal (z-score),[31],-0.355
same,glycan array binding signal (z-score),[32],-0.327
same,glycan array binding signal (z-score),[33],0.318
same,glycan array binding signal (z-score),[34],-0.334
same,glycan array binding signal (z-score),[35],-0.331
same,glycan array binding signal (z-score),[36],-0.331
same,glycan array binding signal (z-score),[37],-0.34
same,glycan array binding signal (z-score),[38],0.256
